Reference: PubChem BioAssay AID602310 (National Center for Advancing Translational Sciences (NCATS), 2012)
The whole screen tested about 410,000 compounds, of which about 310 (0.076%) were called active. The shares of active, inactive and inconclusive entries below differ from those in the screen. Calls follow the shape of the dose curve; as a rule, active = well fitted curve in the direction sought with a large enough effect; inconclusive = small, poorly fitted or top-dose-only effect; inactive = flat fitted curve, though single readings scatter. Potencies beside an inconclusive call are fits to weak or partial responses and may not hold up.

What follows are molecules tested against DNA dC->dU-editing enzyme APOBEC-3G (Homo sapiens) (UniProt Q9HC16) (assay: qHTS for Inhibitors of Vif-A3G Interactions: qHTS). Details: HeLa A3G-eYFP + Vif (tagged APOBEC3G with the HIV-1 protein that degrades it), YFP fluorescence, overnight; series mostly up to 46.1 µM.
UniProt Q9HC16, sequence (Q9HC16 whole entry, looked up): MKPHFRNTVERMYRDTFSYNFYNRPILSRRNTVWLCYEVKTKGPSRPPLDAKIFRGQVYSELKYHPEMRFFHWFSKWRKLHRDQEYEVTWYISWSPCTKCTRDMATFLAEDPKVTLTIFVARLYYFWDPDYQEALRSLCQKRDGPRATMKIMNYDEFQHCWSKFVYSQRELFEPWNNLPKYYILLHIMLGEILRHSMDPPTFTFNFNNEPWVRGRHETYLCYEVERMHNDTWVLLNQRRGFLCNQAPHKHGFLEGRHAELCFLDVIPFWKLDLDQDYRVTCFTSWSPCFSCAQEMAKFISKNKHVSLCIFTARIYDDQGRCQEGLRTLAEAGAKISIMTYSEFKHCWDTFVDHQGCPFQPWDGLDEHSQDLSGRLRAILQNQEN
How it was run: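 Read-out is eYFP fluorescence (Ex 488/Em 500-530) from Vif-expressing HeLa A3G-eYFP cells; more signal means A3G escaped Vif-mediated degradation. Cells plated overnight, compound pinned in, incubated overnight at 37 deg C.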
Also: nearly all actives have a fitted effect of over 60% in size.
Potency is read from the fitted curve at half-maximal effect; tags tell the direction and shape of the fitted curve.

Row | SMILES | Potency
1 | Cc1ccccc1OCc1n[nH]c(=S)n1Cc1ccccc1 | inactive
2 | CCOc1ccc(NCc2nnc(SCC(=O)Nc3cc(C)on3)n2-c2ccccc2OC)cc1 | inconclusive: 25.1 µM [inhibitor, single point]
3 | CCOC(=O)c1cc2c(=O)n3ccccc3nc2n(CC2CCCO2)c1=NC(=O)c1ccccc1Br (centres undefined) | inactive
4 | N#CC1C(=O)c2ccccc2C1c1ccccc1 (centres undefined) | inconclusive: 20 µM [inhibitor, partial curve, poor fit]
5 | Cc1onc(-c2ccccc2)c1C(=O)Nc1cc(C(F)(F)F)ccc1N1CCOCC1 | inconclusive: 3.55 µM [inhibitor, partial curve, poor fit]
6 | COc1ccc2nc(NNC(=O)c3cc(=O)c4ccccc4o3)sc2c1 | inconclusive: 20 µM [inhibitor, single point]
7 | COC(=O)c1c(C)n(-c2ccccc2)c2ccc(O)cc12 | inconclusive: 17.8 µM [inhibitor, single point]
8 | O=C(O)c1cc(S(=O)(=O)N2CCCCC2)sc1Cl | inactive
9 | CCOc1ccccc1C1CC(=O)Nc2cc3c(cc21)OCCO3 (centres undefined) | inconclusive: 0.631 µM [inhibitor, full curve, poor fit]
10 | Cc1cc(NC(=O)CSc2nc(C(C)C)nc3ccccc23)no1 | inconclusive: 31.6 µM [inhibitor, single point]
11 | CCn1c(SCC(=O)NC2CC2)nnc1-c1cccs1 | inactive
12 | Cc1c(C(=O)/C=C/N(C)C)nnn1-c1ccc(Cl)cc1Cl | inconclusive: 11.2 µM [inhibitor, partial curve, poor fit]
13 | COc1ccc(CCn2c(C)nc3c(c(=O)c4ccccc4n3C)c2=O)cc1 | inconclusive: 20 µM [inhibitor, partial curve, poor fit]
14 | N#Cc1c(NC(=O)c2cc(C3CC3)on2)sc2c1CCC2 | inconclusive: 2.24 µM [inhibitor, full curve, poor fit]
15 | NC(=S)n1[nH]c(-c2ccc([N+](=O)[O-])cc2)c(N=Nc2ccccc2[N+](=O)[O-])c1=O | inactive
16 | COc1ccc(CCN2C(=S)NC3CC2(C)Oc2ccc([N+](=O)[O-])cc23)cc1OC (centres undefined) | inactive
17 | Cc1ccc(C(=O)N2CCC3(CC2)Oc2ccc(Cl)cc2C(=O)C32CC(c3ccc(Cl)cc3)=NO2)s1 (centres undefined) | inactive
18 | O=C(NN1C(=O)c2ccccc2NC1c1ccc([N+](=O)[O-])o1)c1ccccc1 (centres undefined) | inactive
19 | Cn1c2ccccc2c2cc(C(=O)NNC(=O)CCl)sc21 | inconclusive: 35.5 µM [inhibitor, single point]
20 | Cc1ccc(/C=C/C(=O)NCC2COc3ccccc3O2)o1 (centres undefined) | inactive
21 | O=C1CCN(Cc2ccccc2)C=C1c1ccc(C(F)(F)F)cc1 | inconclusive: 25.1 µM [inhibitor, single point]
22 | COc1ccc(/C=N/NC(=O)c2[nH]c3ccc(Cl)cc3c2-c2ccccc2)c(C(=O)O)c1OC | inconclusive: 35.5 µM [inhibitor, single point]
23 | O=C(CNc1cccc2ccccc12)N/N=C/C(Br)=C/c1ccccc1 | inconclusive: 7.08 µM [inhibitor, full curve, poor fit]

Row | SMILES | Potency
24 | O=C(Cc1ccc(Cl)cc1)NCCS(=O)(=O)N1CCN(c2ccccc2F)CC1 | inconclusive: 10 µM [inhibitor, partial curve]
25 | COc1ccc(S(=O)(=O)Nc2ccccc2-c2nc3ccccc3[nH]c2=O)cc1 | inconclusive: 17.8 µM [inhibitor, single point]
26 | C/C=C/COC(=O)c1[nH]c2c(c1C)C(=O)CC(c1ccco1)C2 (centres undefined) | inconclusive: 0.562 µM [inhibitor, full curve, poor fit]
27 | Cc1cc(C)nc(SC2=CS(=O)(=O)c3ccccc32)n1 | inconclusive: 5.01 µM [inhibitor, full curve]
28 | CC(=O)C(=Cc1cccc(C#N)c1)C(=O)c1ccccc1 | inconclusive: 22.4 µM [inhibitor, single point]
29 | CSC1(SC2=NCCN2)SC2(NCCN2)S1 | inconclusive: 25.1 µM [inhibitor, single point]
30 | N#Cc1c(N)nc2c3c(sc(=N)c2c1N)NC(=O)CC3c1ccccc1Cl (centres undefined) | inconclusive: 25.1 µM [inhibitor, single point]
31 | CCOC(=O)N1CCN(Cc2nc3cc(NC(=O)c4ccc(F)cc4)ccc3n2C(C)C)CC1 | inconclusive: 1.26 µM [inhibitor, partial curve, poor fit]
32 | COc1ccc(CCCNC(=O)C2Cc3c(-c4cccc(C(C)=O)c4)ccnc3O2)cc1 (centres undefined) | inconclusive: 2.82 µM [inhibitor, full curve, poor fit]
33 | Cc1cccc(NNC(=O)C(=O)NNc2cccc(C)c2)c1 | inactive
34 | COc1cc(C(C[N+](=O)[O-])c2c(C)[nH]c3ccccc23)cc(OC)c1OC (centres undefined) | inconclusive: 35.5 µM [inhibitor, single point]
35 | O=C(CSc1nnc(CNC(=O)c2c(F)cccc2F)o1)Nc1ccc2c(c1)OCO2 | inactive
36 | COCCCN=C1NN=C(c2cc(C)n(Cc3ccccc3Cl)c2C)CS1 | inconclusive: 0.631 µM [inhibitor, full curve, poor fit]
37 | CCN(CC)C(=O)CSC(Nc1cccc(F)c1)=C(C#N)C#N | active: 12.6 µM
38 | COc1ccc(NS(=O)(=O)c2ccc(N)c(C(=O)O)c2)cc1 | inactive
39 | Cc1nc(N2CCC(C)CC2)c2c(C)c(C(=O)Nc3cccc(C(F)(F)F)c3)sc2n1 | inactive
40 | COc1ccc(Cc2nc(N)nc(N)n2)cc1 | inactive
41 | Cc1ccc(-n2nc3c(N4CCC(C(=O)NCc5ccccc5C)CC4)nnc(C)c3c2C)cc1 | inconclusive: 31.6 µM [inhibitor, single point]
42 | COc1ccccc1C(=O)Nc1cccc(C(=O)OCc2cc(=O)n3c4c(sc3n2)CCCC4)c1 | inactive
43 | Nc1nc2ccc(S(=O)(=O)c3ccc4nc(N)sc4c3)cc2s1 | inconclusive: 35.5 µM [inhibitor, single point]
44 | CC1CCC/C=C/C(=O)c2c(O)cc(O)cc2CC(=O)O1 (centres undefined) | inconclusive: 11.2 µM [inhibitor, partial curve, poor fit]
45 | Cc1csc2sc(-c3ccnc(SCC(=O)NCc4ccccc4)n3)c(C)c12 | inconclusive: 2 µM [inhibitor, partial curve, poor fit]
46 | CC1CCCN(c2nc3nonc3nc2Nc2ccccc2F)C1 (centres undefined) | inactive

Row | SMILES | Potency
47 | N#C/C(=C\c1cccn1-c1ccccc1)C(=O)NC1CCCCC1 | inconclusive: 3.16 µM [inhibitor, single point]
48 | O=C(Nc1cc(S(=O)(=O)N2CCOCC2)ccc1N1CCCCC1)c1cc(-c2ccccn2)nc2ccccc12 | inactive
49 | O=C(CCl)N(Cc1ccccc1)c1ccccc1 | inconclusive: 35.5 µM [inhibitor, single point]
50 | Cc1ccc(C(=O)Nc2cc3ccccc3oc2=O)cc1 | inconclusive: 2.51 µM [inhibitor, full curve, poor fit]
51 | CC(=O)NC1(C(Cl)(Cl)Cl)Oc2ccccc2O1 | inconclusive: 25.1 µM [inhibitor, single point]
52 | COC(=O)C(C(=O)Nc1cc(C)on1)C1CCCCCC1 (centres undefined) | inconclusive: 35.5 µM [inhibitor, single point]
53 | CC(C)(C)c1ccc(OCCC(=O)Nc2ccc(N3CCOCC3)cc2N2CCOCC2)cc1 | inactive
54 | CCOCCCNC(=O)c1cc2c(=O)n(CC)c3ccccc3c2s1 | inconclusive: 11.2 µM [inhibitor, partial curve, poor fit]
55 | COc1ccccc1/C=C/c1ccnc2ccccc12 | inconclusive: 12.6 µM [inhibitor, single point]
56 | COc1cccc(CN2CCC2(C)C(=O)Nc2cccc3cccnc23)c1F (centres undefined) | inconclusive: 3.55 µM [inhibitor, single point]
57 | COc1ccccc1Cc1c(-c2ccc(Cl)cc2)nc2c(C)cc(Br)cn12 | inconclusive: 11.2 µM [inhibitor, partial curve]
58 | Cc1ccc(NC(=O)/C=C/c2ccc([N+](=O)[O-])s2)cc1 | active: 3.16 µM
59 | O=C(Nc1cccc(Cl)c1)N1CCOCC1 | inactive
60 | CN1CCN(C(=O)CCN2C(=O)/C(=C/c3ccc(F)cc3)SC2=S)CC1 | inactive
61 | O=C(Nc1ccncc1)c1ccc2c(c1)C(=O)N(C1CCCCC1)C2=O | inactive
62 | O=C(CN1CCCCC1)Nc1c2c(nc3ccccc13)N(c1ccccc1)CC2 | inconclusive: 35.5 µM [inhibitor, single point]
63 | CCOC(=O)N1CCN(S(=O)(=O)c2ccc(C(=O)Nc3sc4c(c3C(N)=O)CCN(CC)C4)cc2)CC1 | inconclusive: 28.2 µM [inhibitor, single point]
64 | O=c1oc2ccc(Br)cc2cc1S(=O)(=O)c1ccc(F)cc1 | inconclusive: 12.6 µM [inhibitor, partial curve, poor fit]
65 | COc1ccc(S(=O)(=O)N2CCN(C(=O)c3ccc([N+](=O)[O-])o3)CC2)cc1 | inconclusive: 15.8 µM [inhibitor, partial curve, poor fit]
66 | O=C(Nc1cccc(-c2cnc3ccccc3n2)c1)c1ccccc1 | inactive
67 | COc1ccc(C(=O)/C=C/c2ccc(N(C)C)cc2)c(OC)c1 | inconclusive: 3.16 µM [inhibitor, single point]
68 | O=C(CSC1=NCCN1)NC(c1ccccc1)c1ccccc1 | inconclusive: 35.5 µM [inhibitor, partial curve, poor fit]
69 | COc1ccc(OC)c(C=C2CCc3ccccc3C2=O)c1 | inconclusive: 6.31 µM [inhibitor, full curve, poor fit]
